Test results taken from PubChem BioAssay AID1030 (National Center for Advancing Translational Sciences (NCATS), 2008).
“And” between values parts separate entries of the source, which are not always exact repeats. Equal values may be shown once. Among all 220,000 compounds or so, about 16,000 (7.3%) were called active. This list was built around the results that the source calls inconclusive (neither active nor inactive); the mix of calls is not that of the screen. The call rests on the fitted dose curve; in most records, active means well fitted inhibition curve with a large enough effect (not every such curve was filed as active); inconclusive means small, poorly fitted or top-dose-only effect, or another doubt; inactive means no such curve, though single readings can be large or run the other way. Potencies of inconclusive entries are doubtful fits and often do not repeat.
Potency means the concentration at half of the fitted maximal effect; tags describe the fitted curve by direction and shape.

What follows are compounds tested against Aldehyde dehydrogenase 1A1 (Homo sapiens) (UniProt P00352) (assay: qHTS Assay for Inhibitors of Aldehyde Dehydrogenase 1 (ALDH1A1)). Settings: Purified ALDH1A1, NADH fluorescence, propionaldehyde substrate; series mostly up to 75.3 µM.
Chain of UniProt P00352 (P00352 whole entry, looked up): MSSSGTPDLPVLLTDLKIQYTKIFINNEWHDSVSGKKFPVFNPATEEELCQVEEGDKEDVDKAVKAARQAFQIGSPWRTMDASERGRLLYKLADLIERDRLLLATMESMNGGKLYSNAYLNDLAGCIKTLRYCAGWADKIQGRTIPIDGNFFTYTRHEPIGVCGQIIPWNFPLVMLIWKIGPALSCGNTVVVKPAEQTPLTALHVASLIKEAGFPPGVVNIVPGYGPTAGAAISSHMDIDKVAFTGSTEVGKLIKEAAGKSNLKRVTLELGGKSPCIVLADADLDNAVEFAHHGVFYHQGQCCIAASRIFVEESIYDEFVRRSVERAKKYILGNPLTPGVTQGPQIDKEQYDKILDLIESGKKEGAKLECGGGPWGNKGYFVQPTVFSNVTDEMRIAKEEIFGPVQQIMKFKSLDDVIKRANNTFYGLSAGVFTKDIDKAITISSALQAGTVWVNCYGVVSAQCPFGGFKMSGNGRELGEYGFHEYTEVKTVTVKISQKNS
For `CO/N=C/CC(=O)c1cnc(-c2ccc(Cl)cc2)s1`, the Potency was active: 3.16 µM.
In the case of `Cc1ccc(C(C2=C(O)CC(C)(C)CC2=O)C2C(=O)CC(C)(C)CC2=O)s1` (stereo not given), the Potency is reported as active: 8.91 µM.
`COC(=O)c1c(C)[nH]c(C(=O)CN2CCOCC2)c1C` was tested, and the Potency was inconclusive: 35.5 µM [inhibitor, single point].
For `COc1ccc(CCN(Cc2cc3cc(C)ccc3[nH]c2=O)C(C)=O)cc1OC`, the Potency was “inactive”.
`O=C1c2ccsc2SCCN1Cc1ccc(Cl)cc1` was tested, and the Potency was inconclusive: 39.8 µM [inhibitor, single point].
In the case of `CC1(C)CC(=O)C(C=NCC2CCN(C(=O)Nc3ccc(Cl)c(Cl)c3)CC2)=C(O)C1`, the Potency is reported as inconclusive: 14.1 µM [inhibitor, partial curve].
`COc1cccc(NC(=O)C2CC(=O)n3cnnc3S2)c1` (stereo not given) was tested, and the Potency was active: 0.708 µM.
`COc1cc(C=O)ccc1OCCCOc1ccc([N+](=O)[O-])cc1` was tested, and the Potency was inconclusive: 35.5 µM [inhibitor, single point].
`Cc1ccc(C)c(N(CC(=O)NCCSCc2ccco2)S(C)(=O)=O)c1` was tested, and the Potency was active: 3.55 µM.
For `CC(C)NC(=O)C1CCN(C2CCN(C(=O)c3cc4c(s3)CCCCC4)CC2)CC1`, the Potency was inconclusive: 39.8 µM [inhibitor, single point].
`Cc1ccc(NS(=O)(=O)c2cccc3nsnc23)cc1` was tested, and the Potency was inconclusive: 39.8 µM [inhibitor, single point].
With `COc1ccc(-c2noc(CSc3nnc(Cc4ccccc4)n3-c3cccc(C)c3)n2)cc1OC` the Potency was active: 12.6 µM.
With `CO/N=C(\C(=O)O)c1csc(NN=C(C)C)n1` the Potency was “inactive”.
For `O=C(COc1ccccc1[N+](=O)[O-])Nc1ccccc1N1CCCC1`, the Potency was “inactive”.
For `COc1ccc(C(CC(=O)Nc2cc([N+](=O)[O-])ccc2OC)c2ccccc2)cc1` (stereo not given), the Potency was “inactive”.
In the case of `CCN(CC)S(=O)(=O)c1cccc(C(=O)NC(C(=O)Nc2nnc(C3CC3)s2)C(C)C)c1` (stereo not given), the Potency is reported as inconclusive: 39.8 µM [inhibitor, single point].
In the case of `CNc1nc(Sc2ccccc2)cc(C(F)(F)F)n1`, the Potency is reported as active: 35.5 µM.
`Cc1cnc(-c2nnc(N(C)C(=O)C3CCOC3)s2)cn1` (stereo not given) was tested, and the Potency was inconclusive: 39.8 µM [inhibitor, single point].
In the case of `Cc1ccc(Cn2cc(S(=O)(=O)c3ccc(C(C)C)cc3)c(=O)c3cc4c(cc32)OCO4)cc1`, the Potency is reported as inconclusive: 5.62 µM [inhibitor, partial curve].
In the case of `Cc1ccc(CSCC(=O)NN=C2CCN(C)CC2)cc1`, the Potency is reported as inconclusive: 11.2 µM [inhibitor, partial curve, poor fit].
`CCOC(=O)N1CCN(c2ccc(C(=O)c3cccc(F)c3)cc2)CC1` was tested, and the Potency was inconclusive: 25.1 µM [inhibitor, single point].
In the case of `CCCn1nc(NC(=O)c2ccccn2)c2cc3cc(C)ccc3nc21`, the Potency is reported as inconclusive: 31.6 µM [inhibitor, partial curve].
With `COc1ccc(C(=O)NC2CCN(C(=S)NCCc3ccccc3)CC2)cc1` the Potency was inconclusive: 5.01 µM [inhibitor, partial curve, poor fit].
For `COc1cc2nc(N3CCN(C(=O)C4CCCO4)CC3)nc(N)c2cc1OC` (stereo not given), the Potency was inconclusive: 25.1 µM [inhibitor, partial curve] and inconclusive: 28.2 µM [inhibitor, partial curve] and inconclusive: 31.6 µM [inhibitor, partial curve].
For `COc1ccc2nc(NC(=O)c3ccoc3C)sc2c1`, the Potency was inconclusive: 31.6 µM [inhibitor, single point].
With `Cc1ccc(C)c(N2CCN(CCCNC(=O)Cn3cccc3C(=O)c3ccccc3C)CC2)c1` the Potency was “inactive”.
In the case of `CN(C(=O)CSc1nc(N)c2c3c(sc2n1)CSC(C)(C)C3)c1ccccc1`, the Potency is reported as inconclusive: 39.8 µM [inhibitor, single point].
For `Cc1ccc(-n2nnnc2SCC(=O)Nc2ncc(Cc3ccccc3Cl)s2)cc1`, the Potency was “inactive”.
`Cc1ccc(C(=O)CNc2ccccc2C)cc1` was tested, and the Potency was active: 11.2 µM.
For `Cc1cccc(C)c1NC(=S)Nc1ccc(Cl)c(Cl)c1`, the Potency was active: 22.4 µM.
With `C=CC[n+]1c(C)csc1Nc1ccc(C(=O)O)cc1` the Potency was “inactive”.
For `COc1ccc(/C=N/NC(=S)NC2CCS(=O)(=O)C2)cc1` (stereo not given), the Potency was “inactive”.
`CC(C)(C)C1CCC(=NNC(=O)CN(c2ccccc2)S(=O)(=O)c2ccccc2[N+](=O)[O-])CC1` (stereo not given) was tested, and the Potency was active: 10 µM.
With `Cc1ccc(NC(=O)c2ccc(-n3cccn3)c([N+](=O)[O-])c2)cc1` the Potency was inconclusive: 39.8 µM [inhibitor, single point].
With `Cc1ccc2nc(C)c(C(=O)N/N=C/c3cccc([N+](=O)[O-])c3)cc2c1` the Potency was inconclusive: 39.8 µM [inhibitor, single point].
With `O=c1[nH]c2cc3c(cc2cc1C(c1nnnn1CC1CCCO1)N1CCCCCC1)OCO3` (stereo not given) the Potency was inconclusive: 28.2 µM [inhibitor, partial curve].
In the case of `O=C(c1cccc(-c2ccc(O)cc2)c1)N1CCN(c2ccc(F)cc2)CC1`, the Potency is reported as “inactive”.
With `Cc1nc(Nc2ccc3c(c2)OCCO3)c2c(C)c(C)sc2n1` the Potency was inconclusive: 25.1 µM [inhibitor, single point].
With `COc1ccccc1NS(=O)(=O)c1cc(NC(=O)CNC(=O)c2ccc(C)s2)ccc1Cl` the Potency was inconclusive: 25.1 µM [inhibitor, partial curve].
With `O=c1[nH]c(CN2CCCCC2)nc2c1C1(CCCCC1)Cc1ccccc1-2` the Potency was “inactive”.
With `Cc1ccc2cc(CN(CCO)Cc3nnnn3Cc3ccc(F)cc3)c(=O)[nH]c2c1` the Potency was active: 20 µM.
`CCOC(=O)CC1C(=O)NCCN1S(=O)(=O)c1ccc(Cl)cc1` (stereo not given) was tested, and the Potency was inconclusive: 20 µM [inhibitor, single point].
In the case of `CC(C)(C)c1ccc(O)c(N)c1`, the Potency is reported as inconclusive: 28.2 µM [inhibitor, single point].
With `CC(C)(CNS(=O)(=O)c1ccc(F)cc1)CNS(=O)(=O)c1ccc(F)cc1` the Potency was inconclusive: 17.8 µM [inhibitor, single point].
In the case of `NC1=NC(=O)/C(=C/c2ccccc2OS(=O)(=O)c2ccccc2)S1`, the Potency is reported as “inactive”.
